Results taken from article PMC7819943, “Rice protein-binding microarrays: a tool to detect cis-acting elements near promoter regions in rice”.
Some of the results follow.

biological target: T1, OsWOX13 (Oryza sativa, UniProt Q5QMM3 1-267); experiment: protein-binding microarray (RPBM); PBS, 2% BSA, 51.3 ng/ul salmon testes DNA, 50 uM zinc acetate, 200 nM TF, 25 C, 1 h; high values mean tight binding; details: protein: recombinant; tags: N-terminal polyhistidine and DsRed monomer fusion (pET32a); label: CyDye5-dUTP incorporated in the synthesized complementary strand; 3' TTTTT single-stranded linker to array surface; dsDNA, one strand shown
T1 sequence: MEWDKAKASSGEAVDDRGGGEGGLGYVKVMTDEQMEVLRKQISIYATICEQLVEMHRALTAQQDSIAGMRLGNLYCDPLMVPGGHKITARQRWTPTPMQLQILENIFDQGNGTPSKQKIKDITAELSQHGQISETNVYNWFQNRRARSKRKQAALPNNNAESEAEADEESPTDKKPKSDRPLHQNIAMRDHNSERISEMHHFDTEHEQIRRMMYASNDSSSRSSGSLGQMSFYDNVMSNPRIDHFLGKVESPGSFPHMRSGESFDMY
How it was run: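 Transcription factors were each fused at the N-terminus to a polyhistidine tag plus DsRed and expressed in E. coli BL21-CodonPlus before Ni–NTA purification. Binding to a double-stranded custom Agilent array was carried out with 200 nM protein at 25 °C for 1 h in PBS, 2% BSA, salmon testes DNA and 50 µM zinc acetate. The binding signal is per-feature fluorescence intensity, in arbitrary units, on an Axon 4000B scanner.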

Row | Sequence | binding signal
1 | TCCTAAATTTAGGTTGAAGAGTTGGGACTAGAGTGGAGTTCGGAGTCACCTAGTGCAG | 9060 fluorescence intensity (a.u.)
2 | TTATGGTTGATTAAAATAGACGAAATGACCCACATCTTTACGGAGTCACCTAGTGCAG | 7760 fluorescence intensity (a.u.)
3 | AAAGCGCGTGATTGCCGAAGTGCCGGCCCACATAGGCCCACGGAGTCACCTAGTGCAG | 12700 fluorescence intensity (a.u.)
4 | ATGAACTAATTGATGGGAATATCTACTACTACTACCAGGTCGGAGTCACCTAGTGCAG | 44600 fluorescence intensity (a.u.)
5 | TTAAACATCAAATCTAAGCTAATCTACTCCAGTTGGTAATCGGAGTCACCTAGTGCAG | 4100 fluorescence intensity (a.u.)
6 | ATAAATAGAGAGATTGTCTCTGTCACTGGTTGTGTGTGTGCGGAGTCACCTAGTGCAG | 17600 fluorescence intensity (a.u.)
7 | CAATGTAACTAATTTAGTGTTGTAGATGTTACTATATTTGCGGAGTCACCTAGTGCAG | 5290 fluorescence intensity (a.u.)
8 | ATATATATATATATATATATATATCATCAATCTTTAGTTCCGGAGTCACCTAGTGCAG | 8990 fluorescence intensity (a.u.)
9 | AGTCAGATTTTAAATTTGTTCGCTTTTGAAAATATAGGAGCGGAGTCACCTAGTGCAG | 4190 fluorescence intensity (a.u.)
10 | CTGTGAAACTAATTTGATTCACTGTTAGGGAGTACTTCCCCGGAGTCACCTAGTGCAG | 15400 fluorescence intensity (a.u.)
11 | GTCGAATAGATTACATAATTTCAGATTTAAGCCAAGCATGCGGAGTCACCTAGTGCAG | 16600 fluorescence intensity (a.u.)
12 | ATATCATAATTTGAATCGTCATGTATTTGTGTGCACGTACCGGAGTCACCTAGTGCAG | 7860 fluorescence intensity (a.u.)
13 | GACAGATTGCCAGTTAGCCGGCTGATATAGTTCTTGATAACGGAGTCACCTAGTGCAG | 37900 fluorescence intensity (a.u.)
14 | TTCCAGACATTAAACTCACTAATTATTGTCCTTTAGCATACGGAGTCACCTAGTGCAG | 4340 fluorescence intensity (a.u.)
15 | GCTCTAATCATTGATGACATATATAAGCTTGACTTGGTCACGGAGTCACCTAGTGCAG | 26300 fluorescence intensity (a.u.)
16 | ATTAAACCGACAAATTTTAATCAAACCTGATGAACAAATCCGGAGTCACCTAGTGCAG | 6940 fluorescence intensity (a.u.)
17 | CTTTATTGATTGAGAGGAACTATCTACCTCTGTAATGACACGGAGTCACCTAGTGCAG | 39200 fluorescence intensity (a.u.)
18 | ATTTAACAAATTTTAAGTAAAATCATATGTAAAACATAGACGGAGTCACCTAGTGCAG | 10800 fluorescence intensity (a.u.)
19 | GTATAATAATAATAAATTAATTAAAGGACTGTATGTAAAACGGAGTCACCTAGTGCAG | 10000 fluorescence intensity (a.u.)
20 | CAAATTGCGGTAAGCCCTAATTAACAGTGGTAGGAACATTCGGAGTCACCTAGTGCAG | 3180 fluorescence intensity (a.u.)
21 | TTAACTCGATTGTGGGCTTAATTAGGAAACTGTCCTCTTCCGGAGTCACCTAGTGCAG | 8670 fluorescence intensity (a.u.)

Row | Sequence | binding signal
22 | ACCATATATTGATAGTGTACTATATGTTTATCGATAACTACGGAGTCACCTAGTGCAG | 4010 fluorescence intensity (a.u.)
23 | AGCTTAATTAGCTCTAGAAGAAGAAGAAGAAGAAGAAGAACGGAGTCACCTAGTGCAG | 9290 fluorescence intensity (a.u.)
24 | AGGCTACATGAGGGAAATTAATTGAGACCACTTGTTCTGTCGGAGTCACCTAGTGCAG | 6750 fluorescence intensity (a.u.)
25 | CTCTGACTGCCCTCGCTAATCCAATTTCCGCATGTTCGTGCGGAGTCACCTAGTGCAG | 8930 fluorescence intensity (a.u.)
26 | ATAATAGATGCACTTATTAATTCCTTAACTCCAATATCTCCGGAGTCACCTAGTGCAG | 3370 fluorescence intensity (a.u.)
27 | GGACTAATTAGGCTCAAAAGACTCGTCTCGAGATTTCTATCGGAGTCACCTAGTGCAG | 29600 fluorescence intensity (a.u.)
28 | GGTGGTAGATTAGATTCCAGCTGATCCAATCTGGTCCGGGCGGAGTCACCTAGTGCAG | 7930 fluorescence intensity (a.u.)
29 | CATCCATCAGTGATGTATGGATTTCCATGATACCCAAGAGCGGAGTCACCTAGTGCAG | 4360 fluorescence intensity (a.u.)
30 | TATAATAGATTCCCTCTCTAAGAAATATCATAAAGACGGGCGGAGTCACCTAGTGCAG | 3880 fluorescence intensity (a.u.)
31 | TTTTGCCTTCATGATTGATATCTATATGTATATATAAAGACGGAGTCACCTAGTGCAG | 12000 fluorescence intensity (a.u.)
32 | TTTTGAGGAGGAATTTGATTGAAAGGATTTGGATTCGGAACGGAGTCACCTAGTGCAG | 16900 fluorescence intensity (a.u.)
33 | TGGAGATTGCTTACACTGTTACGCAGTTAACAAAACTAGCCGGAGTCACCTAGTGCAG | 5570 fluorescence intensity (a.u.)
34 | ATATATATATATATATATATATATATATATATGATGTGCGCGGAGTCACCTAGTGCAG | 17800 fluorescence intensity (a.u.)
35 | ATAGATGATAGGAATATTTCCCCTACTTGCTAAATGGAATCGGAGTCACCTAGTGCAG | 12100 fluorescence intensity (a.u.)
36 | GAAATAAATTTTGGATTGGCTATGTTAATATGATATGACCCGGAGTCACCTAGTGCAG | 25900 fluorescence intensity (a.u.)
37 | TACTCTGCCAATCTAAATTAATGATGTATGATATGGTCTCCGGAGTCACCTAGTGCAG | 26200 fluorescence intensity (a.u.)
38 | TAAAAGAAATATTTGGCTAATTGACAAACGTAAAATTGGCCGGAGTCACCTAGTGCAG | 25700 fluorescence intensity (a.u.)
39 | AGTAATTGTGTAATTTTCACGATATCCGTGAGGTACAGTACGGAGTCACCTAGTGCAG | 17000 fluorescence intensity (a.u.)
40 | CTGCTTAATTGCTCGGTTAATCCCTGCAAGGGGAGTAGAACGGAGTCACCTAGTGCAG | 17100 fluorescence intensity (a.u.)
41 | TTAATTTTAATTTTCTAATAAGCCAAATAAGCCATTTTGGCGGAGTCACCTAGTGCAG | 13700 fluorescence intensity (a.u.)
42 | TCCAAAACGTCAATTAAAATGAAACCGGAGGGAGTATGTGCGGAGTCACCTAGTGCAG | 13300 fluorescence intensity (a.u.)
